The campaign covered roughly 150,000 compounds. About 540 (0.36%) showed an effect of 50% or more. This is one part of the list.
These compounds were tested on Plasmodium falciparum (assay: Primary screen in NF54 nanoGlo assay, in single point, at 2uM, 72h; a lower Z score goes with more inhibition). Conditions: timepoint 72 hour.
Format: functional, Erythrocyte

Compound | % Inhibition [%] | Z score
NC(=O)CC[C@H]1CCCN(C(=O)c2nn(-c3cccc(Br)c3)c3c2CCCC3)C1 | -3 | 0.35
CCCc1nc(NC[C@H]2CC[C@H](CO)CC2)no1 | -12 | 1.18
Cc1cc(C(=O)NCc2cccnc2N2CCOCC2)no1 | -9 | 1.4
Clc1ccc(CN2CCCC[C@@H]2CCn2ccnc2)s1 | -1 | 0.09
CN(C)c1ccc(CN2CC[C@H](n3cc(C4CC4)nn3)C2)cn1 | -1 | 0.1
Cc1cccc(N2CCN(C(=O)Nc3cn(CC(C)C)c(=O)c4ccccc34)CC2)c1C | 8 | -1.44
Cn1cnnc1CC1CCN(C(=O)c2ccccc2)CC1 | -7 | 0.78
CNS(=O)(=O)c1ccc(-c2cccs2)c(C(=O)N2CCc3ccccc32)c1 | 9 | -1.68
O=C(NCc1cccc(F)c1)c1ccnc(-c2ccsc2)c1 | -12 | 1.54
CN(Cc1ccccc1)Cc1cncc(-c2ccccc2F)c1 | 31 | -3.86
O=C(Cn1cnc2ccccc2c1=O)N1CCC(n2c(=O)[nH]c3ccccc3c2=O)CC1 | -7 | 0.91
CC1CN(C(=O)c2cc(Br)cnc2N(C)C)CC(C)N1 (stereo not given) | -8 | 1.21
COCCCN(C)C(=O)N1CCC(Nc2nc(C)cs2)CC1 | -15 | 2.08
CCc1ccc(-c2n[nH]c(=O)c3c2CCCC3)cc1S(=O)(=O)N1CCCC[C@@H]1C | -3 | 0.3
CC(C)(C)OC(=O)NC1(c2nnc(-c3ccncc3)o2)CCCC1 | -5 | 0.58
COc1ccc(OC)c(-c2nccn2Cc2sc(C)nc2C)c1 | -13 | 1.49
CC1(CNC2CC(c3cccc(F)c3)C2)OCCCO1 (stereo not given) | -3 | 0.36
C[C@@]1(c2nc(CCc3ccc(OC(F)F)cc3)no2)CCCO1 | -6 | 0.54
Cc1cccc([C@@H](NC(=O)CCCc2cn[nH]c2)C2CC2)n1 | -16 | 1.53
CC(C)C(NC1CCCC(C#N)C1)c1nnc2ccccn12 (stereo not given) | -10 | 1.44
COc1cc2c(cc1OC)[C@H](C1CC1)N(C(=O)CC(C)C)CC2 | -13 | 1.49
Cc1noc(-c2ccccc2OCC(=O)Nc2c(C)n(C)n(-c3ccccc3)c2=O)n1 | 13 | -1.5

Compound | % Inhibition [%] | Z score
CN(Cc1ccsc1)c1ncccc1Cl | -5 | 0.69
c1cc(-c2ccsc2)n2ncnc2n1 | 9 | -1.11
O=C1CCCN1CCN1CCCC[C@H]1c1cccc(F)c1 | 6 | -0.89
CCCCc1nc(CN2CCC[C@@](CO)(CCc3ccccc3)C2)c[nH]1 | -2 | 0.24
CCc1noc(NC(=O)N2Cc3ccccc3[C@@H]2C)n1 | -9 | 0.95
Cc1cc(NC(=O)NCCc2cn[nH]c2)nn1C1CCCCC1 | -7 | 1.35
Cc1cc(NC(=O)C(=O)N(C)[C@@H](C)C(C)(C)C)no1 | 3 | -0.53
C=C(C)CN[C@@H](C)c1sc(CC)nc1C | 2 | -0.32
NC1CCC(C(=O)N(Cc2ccccc2)Cc2ccccc2)C1 (stereo not given) | 3 | -0.55
COc1cc(-n2c(=O)c3ccccc3n(CC(=O)NC[C@H]3CCCO3)c2=O)cc(OC)c1OC | -2 | 0.31
COc1ccc([C@@H]2c3[nH]c4ccc(Cl)cc4c3CCN2C(=O)NC2CCCC2)cc1 | 3 | -0.42
Cc1ccc(NC(=O)NCC(=O)NCC2CC2)nc1 | -2 | 0.24
O=C(CN1C[C@H]2CC[C@@H](C1)N(Cc1ccccc1)C2)N1CCOCC1 | -18 | 2.95
Cc1cnc2c(Cl)c(C(=O)N3CCC4(CCN(C)CC4)C3)nn2c1 | -6 | 0.65
COCCN1CCC(CN(Cc2ccc(C)s2)C[C@H]2CCCO2)CC1 | -24 | 2.15
Cc1ccc(Nc2nc(N)c(C(=O)c3c(C)[nH]c4ccccc34)s2)c(C)c1 | -13 | 1.97
Cc1cc(C)cc(N2CCN(CCc3csc(C)n3)CC2=O)c1 | 11 | -1.76
COCCO[C@H]1[C@H](NC(=O)C(C)C)c2ccccc2C12CCN(Cc1cccc(F)c1F)CC2 | 24 | -3.03
CCCNC(=O)c1c(OCC2CC2)cc(=O)n2c1CCOCC2 | -13 | 2.1
O=C(Cn1c2c(sc1=O)CCCCC2)NCc1ccccc1F | -12 | 1.82
O=C(NCc1cc(Cl)cc2c1OCC2)c1ccncc1 | -26 | 3.33
Cc1nc(C)n([C@@H](C)CNC(=O)c2ccc3c(c2)OCO3)n1 | -42 | 4.92

Compound | % Inhibition [%] | Z score
CN(C)c1cc(NC(=O)C2COC(CCC(=O)O)C2)ccn1 (stereo not given) | -12 | 2.35
CCn1cc(CNc2cc(C)nc(C)n2)cn1 | -10 | 1.14
Cc1nc(C2(C)CCN(S(=O)(=O)c3cc(C)c(C)cc3C)CC2)no1 | -7 | 1.35
CNC(=O)CC1CCN(C(=O)c2c(C)ncn2C)CC1 | -10 | 1.78
Cc1ccc(NCc2c(Cl)cnn2C)cc1N1CCCS1(=O)=O | -11 | 1.5
CCn1nnnc1-c1cccc(NC(=O)N2CCC3C(CCCN3C3CC3)C2)c1 (stereo not given) | -5 | 0.83
O=C(NCCCc1ccccc1)c1cn2c(n1)C(=O)N[C@H](c1ccc(F)cc1)C2 | -11 | 1.23
Cc1c(C(=O)N(C)CCc2nccs2)nnn1CC1CCCC1 | -1 | 0.11
CCc1ncc(C(=O)N2CCN(c3cccc(OC)c3)CC2)s1 | 1 | -0.07
CC1(C)CCCN(C(=O)C2CC=CC2)CC1 | 28 | -3.14
COc1ccc(-c2nn3c(N4CCCCCC4)cc(C)nc3c2C)cc1OC | -8 | 1.59
CN1C[C@@H](O)CNS(=O)(=O)c2ccc(C3CCOCC3)cc2O[C@H]2CN(C3CCCCC3)C[C@H]21 | -12 | 1.79
S=c1[nH]nc(Cn2nnc3ccccc32)o1 | -30 | 3.47
CCn1cncc1CNC(=O)c1ccc(-c2cc(OC)nc(OC)n2)cc1 | 1 | -0.17
Cc1c(NC(=O)c2cncc(Cl)c2)c(N2CCCC2)nn1C | -14 | 1.27
COc1ccc2[nH]cc(CN3CCC[C@@](F)(C(=O)N4CCCC4)C3)c2c1 | -15 | 1.3
N#Cc1cnccc1NC(=O)[C@@H]1C[C@]12CCOc1ccccc12 | -6 | 1.03
Cc1cc(CNCc2cc(Br)c3c(c2)OCO3)no1 | -3 | 0.41
Cc1ccc(OC2CCN(C(=O)c3ccccc3)CC2)nn1 | -17 | 3.32
CCN(C1CCN(C)CC1)C1CN(C(=O)C2CCCCC2)C1 | -10 | 1.33
COc1ccccc1Cn1c(=O)c2sccc2n(CC(=O)Nc2ccc(C)c(Cl)c2)c1=O | 25 | -3.66
O=C(c1cnccn1)N1CCOc2ccc(CN3CCCCCC3)cc2C1 | -11 | 1.19

Compound | % Inhibition [%] | Z score
CN(C)c1cccc(C(=O)N[C@H]2CCS(=O)(=O)C(C)(C)C2)c1 | -19 | 3.57
Cc1ccc2[nH]c(C3CN(S(=O)(=O)c4cccnc4)C3)nc2c1 | -18 | 3.51
O=C(CN1CCOC1=O)NC1CCC2OCCOC2C1 (stereo not given) | -5 | 1.02
COc1nccc(C(=O)N(Cc2cccs2)C(C)C)n1 | -9 | 1.2
Cc1cnc([C@H]2CCN(C(=O)NCC(C)C)C2)n1C(C)C | 2 | -0.3
COc1ccc([C@@]2(C)NC(=O)N(CC(=O)Nc3ccc4c(c3)CCC4)C2=O)cc1OC | 2 | -0.25
C#CCN(Cc1ccco1)C(=O)[C@H]1CCOC1 | -9 | 1.41
COCCc1ncc(-c2cc(C(=O)N3Cc4ccccc4C3)c3ccccc3n2)cn1 | -12 | 1.63
CC1CCN(C(=O)C2CCCN2C(=O)OCC(F)(F)F)CC1C (stereo not given) | -13 | 2.39
CCNC(=O)N1CCC(Cc2ccc(C(=O)N(C)Cc3cn(CC)nc3C)cc2)CC1 | -4 | 0.54
C#CCNC(=O)C1C(=O)C(C)N(Cc2ccccc2)C1=O (stereo not given) | -12 | 1.51
Cc1cn(C)c(CC(=O)NCc2ccc(CN3CCCCCC3)o2)c1C(=O)O | -14 | 1.81
CC(C)c1ccc(NC(=O)C2CCN(S(=O)(=O)c3ccc4c(c3)CCCN4C(=O)C3CCC3)CC2)cc1 | -13 | 2.33
CNS(=O)(=O)c1ccc(NC(=O)NCC2(c3ccc(F)cc3F)CC2)nc1 | -4 | 0.56
CC(C)(C)CC(NC(=O)N1CCCC(CO)C1)C(F)(F)F (stereo not given) | 0 | -0.07
Cc1ccc(-n2cc(-c3ccccc3)nc2NC(=O)CN(CCN2CCOCC2)C(=O)c2ccco2)cc1F | 0 | -0.03
Cc1ccccc1Oc1cc(NC(=O)c2ccc(F)cc2)cc(NC(=O)c2ccc(F)cc2)c1 | -5 | 0.73
NC(=O)C1=C(NCCc2ccccc2)c2ccccc2S1(=O)=O | -9 | 0.9
Cc1cnc(-c2cccc(C(=O)NCCN3CCNC3=O)c2)nc1N(C)C | -18 | 2.72

— ChEMBL document CHEMBL4888484, “Replenishing the malaria drug discovery pipeline: Screening and hit evaluation of the MMV Hit Generation Library 1 (HGL1) against asexual blood stage Plasmodium falciparum ,using a nano luciferase reporter read-out” (2022)
